Molecular target: the molecule itself
Test: SEC-MALS; HPLC size exclusion (TSK-GEL SuperSW2000) with static and dynamic light scattering, room temperature, in the absence or presence of biotin

B1: SAVSBPM18 engineered streptavidin (S27A, G48T) (designed binder)
chain: not shown
notes: streptavidin with the double mutation S27A, G48T; Secreted by means of the B. subtilis levansucrase (SacB) signal peptide; also called streptavidin SAVSBPM18; source: B. subtilis WB800[pSAVSBPM18], secreted, purified (biotin-agarose)
stoichiometry N: 4

Source: publication PMC3712923, “Structure-Guided Design of an Engineered Streptavidin with Reusability to Purify Streptavidin-Binding Peptide Tagged Proteins or Biotinylated Proteins” (PLoS ONE, 2013)
